Variants at the floor of the assay are shown more often than the library holds them.
B1: TPR 5TU (parent)
chain: GGAUCUUCUCGAUCUAACAAAAAAGACAAAUCUGCCACAAAGCUUGAGAGCAUCUUCGGAUGCAGAGGCGGCAGCCUUCGGUGGCGCGAUAGCGCCAACGUUCUCAACUAUGACACGCAAAACGCGUGCUCCGUUGAAUGGAGUUUAUCAUG

Variants of: B1
Test: polymerase ribozyme fitness, log enrichment relative to wild type (log ratio); higher = more active; in vitro selection for triplet polymerase activity
Outline: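 Each subunit of a heterodimeric triplet polymerase ribozyme was represented by a PCR-built, transcribed mutant library that underwent triplicate single-round in vitro selection with frozen incubation at −7 °C. Extended constructs were recovered by gel excision, streptavidin-bead capture and RT-PCR, and Illumina sequencing of input and output libraries kept genotypes with ≥10 input reads and ≥1 read per output. Fitness is the logarithm of genotype enrichment relative to wild-type enrichment, from inverse-variance-weighted replicate averages, with a logarithm base of 2.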

First: GGAUCUUCUCGAUCUAACAAACAAGACAAAUCUGCCACAAAGCUUGUGAGCAUUUUCGGAUGCAGAGGCGGCAGCCUUCGGUGGCUCGAUAGCGCCAACGUUAUCAACUAUGACACGCAAAACGCGUGCUCCGUUGAAUGGAGUUUAUCAUG
Second: GGAUCUUCUCGAUCUAACAAUAAAGACAAAUCUGCCACAAAGCUUGAGAGCAUCUUCGGAUGCAGAGGCGGCAGCCUUCGGUGGCACGAUAGCGCCAACGUUCUCAACUAUGACACGCAAAACGCGUGCUCCGUUGAAUGGAGUUUAUCAUG
The “polymerase ribozyme fitness (log ratio)” value of the first is lower: ≤ -4.2 for the first, -0.555 for the second.

GGAUCUUCUCGAUCUAACAAUAAAGACAAAUCUGCCACAAAGCUUGAGAACAUCUUGGGAUGCAGAGGCGGCAGCCUUCGGUGGCGCGAUAGCGCGAACGUUCUCAAUUAUGACACGCAAAACGCGUGCUCCGUUGAAUGGAGUUUACCAUA and GGAUCUUCUCGAUCUAACAAUAAAGACAAAUCUGCCACAAAGCUUGAGAACAUGUUCGGAUGCAGAGGCCGCAGCCGUCGGUGGCGCGAUAACGCCAACGUUCUCAACUAUGACACGCAAAACGCGUGCUCCGCUGAAUGGAGGUUAUCAUG cannot be ordered by “polymerase ribozyme fitness (log ratio)” value: ≤ -4.2 for the first, ≤ -4.2 for the second.

GGAUCUUCUCGAUCUAACAAACAAGACAAAUCUGCCACAUAGCUUGAGAGCAUCUUUAGAUGCAAAGGCGGCAGACUUCGGUGGCGCGAUAGCGCCAACGUUCUCAACUAUGACACGCAAAACGCGUGCUCCAUUGAUUGGCGUUUAUCAUG and GGAUCUUCUCGAUCUAACAAACAUGACAAAUCUGCCACAAAGCUUGAGAGCAUCUUCGGAUGAAGAGGCGACAGCCUUCGGUGGCGCGAUAGCGCCAACGUUCUCAAGUAUGACACUCAAAACGCGUGCUCCGUUGAAUGGAGUUUAUCAUG cannot be ordered by “polymerase ribozyme fitness (log ratio)” value: ≤ -4.2 for the first, ≤ -4.2 for the second.

First: GGAUCUUCUCGAUCUAACAAUAAAGACAAAUCUUCCACAAAGCUUGAGAGCAUCUUCGGAUGCAGAGGCGGCAGCCUUCGGUGGCGCGAUAGGACCAACGUUCUCAACUAUGACACGCAAAACGCGUGCUCCGUUGAAUCGAGUUUAUCAUG
Second: GGAUCUUCUCGAUCUAACAAUAAAGACAAAUCUGCCACAAAGCUUGAGAGCAUCUUCGGAUGCAGAGGCGGCAGCCUUCGGUGGCGCGAUAGCGCCAACGUUCUCAACUAUGACACGCAAAACGCGUACUCCGUUGAAUGGAGUUUAUCAUG
The “polymerase ribozyme fitness (log ratio)” value of the first is lower: ≤ -4.2 for the first, -3.26 for the second.

GGAUCUUCUCGAUCUAACAAACAAGACAAAUCUGCCCCAAAGCUUGAGAGCAUCUUCGCAUGCAGAGGCGGCAGCAUUCGGUGGCGCGAUAGCGCCAACGUUCUCAACUAUGACACGCAAAACGCGUGCUCCGUUGAAUGGAGUUUAGCAUG and GGAUCUUCUCGAUCUAACAAUAAAGACAAAUCUGCCACAAAGCUUGAGAGCAUCUUCGGAUGCAGAGGCGGCAGCCUUCGGGGGCGCGAUAGUGCCAACGUUCUCAACUAUGACACGCAAAACGCGUGCUCCGUGGAAUGGAGUUUAGCAUG cannot be ordered by “polymerase ribozyme fitness (log ratio)” value: ≤ -4.2 for the first, ≤ -4.2 for the second.

GGAUCUUCUCGAUCUAACAAACAAGAGAAAUCUGCCACAAAGCUUGAGAGCAUCUUCGGAUGCAGAGGCGGCAACGUUCGGUGGCGCGAUAGCGCCAGCGUUCUCAGCUAUGACACGCAAAACGCGUGCUCCGUUGAACGGAGCUUAUCAUG and GGAUCUUCUCGAUCUAACAAUAAAGACAAAUCUGCCACAAAGCUUGAGAGCAUCUUCGGAUGCAGAGGCGCCAGCCUUCGGUGGCGCGAUAGAGCCAACGUUCUCAACUAUGACACGCAAAACGCGUGCUCCGUUGAAUGGAGUUUAUCAUG cannot be ordered by “polymerase ribozyme fitness (log ratio)” value: ≤ -4.2 for the first, ≤ -4.2 for the second.

GGAUCUUCUCGAUCUAACAAACAAGACUAAUCUGCUACAAAGCUUGAGAGCAUCUUCGGAUGCAGAUGCGGCAGCCUUCGGUGGCGCGAUAGCGCCAACGUUCUCAACUAUGACACGGAAAACGCGUGCUCCGUUGAAUGGAGUUUAUCAUG and GGAUCUUCUCGAUCUAACAAACAAGACAGAUCUGCCACAAAGCUUGAGAGCAUCUUCGGAUGCAGAGGCGGCAGCCUUCGGUGACUCGAUAGCGCCAAAGUUCUCAACUAUGACACGCAAAACGCGUGCUCCGUUGAAUGGAGUUUAUCAUG cannot be ordered by “polymerase ribozyme fitness (log ratio)” value: ≤ -4.2 for the first, ≤ -4.2 for the second.

GGAUCUUCUCGAUCUAACAAUAAAGACAAAUCUGCCACAAAGCUUGAGAGCAUCUUCGGAUGCAGAGGCGGCAGCCUUCGGUGGCGCGAAAGCGUCAACGUUCUCAACUAUGACACGCAAAACGCGUGCUCCGGUGAAUGGAGUUUAUCAUG and GGAUCUUCUCGAUCUAACAAACGAGACAAAUCUGCCACAAAGCUUGAGAGCAUUUUCGGAUGCAGAGGCGGCAGCCUUCGGUGGCGCGAUAGCGCCAACGUUCUCAACUAUGACACGCAAAACGCGUGCUCCGUUGAAUGGAGUUUAUCAUG cannot be ordered by “polymerase ribozyme fitness (log ratio)” value: ≤ -4.2 for the first, ≤ -4.2 for the second.

GGAUCUUCUCGAUCUAACAAACAAGACUAAUCUGCCACAAAGCUUGAGAGCAUCUUCGGAUGCAGAGGCGGCAGCCUUCGGUGGCGCGAUAGCGCCAACGUUCUUAACUAUGACACGCAAAAUGCGUGCUCCGUUGAAUGGAGUUUAUCAUG and GGAUCUUCUCGAUCUAACAAUAAAGACAAAUCAGCCACAUAGCUUGAGAGCAUCUUCAGAUGCAGAGGCGGCAGCCUUCGGUGGGGCGAUAGCGCCACCGUUCUCUACUAUGACACGCAAAACGCCUGCUCCGUUGAAUGGAGUUUAUCAUG cannot be ordered by “polymerase ribozyme fitness (log ratio)” value: ≤ -4.2 for the first, ≤ -4.2 for the second.

With GGAUCUUCUCGAUCUAACAAACAAGACUAAUCUGCCACAAAGCUUGAGAGCAUCUUCGGAUGGAGAGGCGGCAGCCUUCGGUGGCGUCAUAGCGCCAACGUUCUCAACUAUGACACGCAAAACGCGUGCUCCGUUGAAUGGCGUUUAUCAUG the “polymerase ribozyme fitness (log ratio)” value was ≤ -4.2.
